Source: article PMC10043283, “Neuraminidase 1 promotes renal fibrosis development in male mice” (Nature Communications, 2023)
Results are given in words; binding and its absence hold for the method and conditions named. For some assays here: In cells and extracts the contact can be indirect. Some results given as binding are weak or reduced against the parent protein; the word gives no strength. For some assays here: Where a sequence is shown, tags or fusion partners need not be part of it. Each block holds one binder with its values, some of them ahead of it.

How the values were obtained:
[1] = biological target: HA-NEU1 (neuraminidase 1) (UniProt Q99519); test: co-IP; HEK293T cells transfected with HA-NEU1 and Flag-tagged receptor plasmids; lysis in 25 mM Tris-HCl pH 7.4, 150 mM NaCl, 1% NP-40, 1 mM EDTA, 5% glycerol; Flag-tag or HA-tag antibody on Protein A/G magnetic beads; western blot
[2] = biological target: neuraminidase 1 (NEU1), endogenous (human (endogenous in HK-2 and in human kidney biopsies)) (UniProt Q99519); test: proximity ligation; in situ PLA (Duolink) of NEU1 and ALK5 in fixed HK-2 cells transfected with the ALK5_(160-200aa) plasmid; also cells treated with salvianolic acid B (Supplementary Fig. 10b)
[3] = biological target: Human NEU1 recombinant protein (human) (UniProt Q99519); test: SPR; Biacore T200, 25 °C, HBS-EP+ pH 7.4; human NEU1 amine-coupled to CM5 chip (8000–10,000 RU); ALK5 recombinant proteins flowed at 7.80–500 nM; 1:1 binding model; both purified
[4] = biological target: HA-NEU1 (neuraminidase 1) (UniProt Q99519); test: co-IP; co-IP of NEU1 and ALK5 in HEK293T cells transfected with the ALK5_(160-200aa) plasmid as competitor
NEU1-VC155 = NEU1-VC155 (UniProt Q99519); test: split reporter; BiFC in HK-2 cells co-transfected with pBiFC-NEU1-VC155 and pBiFC-ALK5-VN173, with or without TGFβ (10 ng/ml, 24 h); confocal microscopy
[5] = biological target: neuraminidase 1 (NEU1), endogenous (human (endogenous in HK-2 and in human kidney biopsies)) (UniProt Q99519); test: proximity ligation; in situ PLA (Duolink) on paraffin sections of fibrotic human kidney biopsies, anti-NEU1 and anti-ALK5 antibodies
[6] = biological target: neuraminidase 1 (NEU1), endogenous (human (endogenous in HK-2 and in human kidney biopsies)) (UniProt Q99519); test: co-IP; HK-2 cells, endogenous proteins, NEU1 or ALK5 antibody on Protein A/G magnetic beads; with or without TGFβ (10 ng/ml, 24 h); also lysate treated with lambda protein phosphatase (Fig. 7i) and cells treated with salvianolic acid B (Supplementary Fig. 10a)

B1: Flag-ALK4 (receptor, UniProt P36896 24-505)
chain: SGPRGVQALLCACTSCLQANYTCETDGACMVSIFNLDGMEHHVRTCIPKVELVPAGKPFYCLSSEDLRNTHCCYTDYCNRIDLRVPSGHLKEPEHPSMWGPVELVGIIAGPVFLLFLIIIIVFLVINYHQRVYHNRQRLDMEDPSCEMCLSKDKTLQDLVYDLSTSGSGSGLPLFVQRTVARTIVLQEIIGKGRFGEVWRGRWRGGDVAVKIFSSREERSWFREAEIYQTVMLRHENILGFIAADNKDNGTWTQLWLVSDYHEHGSLFDYLNRYTVTIEGMIKLALSAASGLAHLHMEIVGTQGKPGIAHRDLKSKNILVKKNGMCAIADLGLAVRHDAVTDTIDIAPNQRVGTKRYMAPEVLDETINMKHFDSFKCADIYALGLVYWEIARRCNSGGVHEEYQLPYYDLVPSDPSIEEMRKVVCDQKLRPNIPNWWQSYEALRVMGKMMRECWYANGAARLTALRIKKTLSQLSVQEDVKI
binding [1]: binds

B2: Flag-ALK2 (receptor, UniProt Q04771 21-509)
chain: MEDEKPKVNPKLYMCVCEGLSCGNEDHCEGQQCFSSLSINDGFHVYQKGCFQVYEQGKMTCKTPPSPGQAVECCQGDWCNRNITAQLPTKGKSFPGTQNFHLEVGLIILSVVFAVCLLACLLGVALRKFKRRNQERLNPRDVEYGTIEGLITTNVGDSTLADLLDHSCTSGSGSGLPFLVQRTVARQITLLECVGKGRYGEVWRGSWQGENVAVKIFSSRDEKSWFRETELYNTVMLRHENILGFIASDMTSRHSSTQLWLITHYHEMGSLYDYLQLTTLDTVSCLRIVLSIASGLAHLHIEIFGTQGKPAIAHRDLKSKNILVKKNGQCCIADLGLAVMHSQSTNQLDVGNNPRVGTKRYMAPEVLDETIQVDCFDSYKRVDIWAFGLVLWEVARRMVSNGIVEDYKPPFYDVVPNDPSFEDMRKVVCVDQQRPNIPNRWFSDPTLTSLAKLMKECWYQNPSARLTALRIKKTLTKIDNSLDKLKTDC
binding [1]: no binding

Binder: NEEDPSLDRPFISEGTTLKDLIYDMTTSGSGSGLPLLVQRT (domain or fragment, UniProt P36897 160-200) [Flag-ALK5_(160-200aa)]
binding [2]: binds
binding [1]: binds

B6: Flag-ALK5 (TGFβ type I receptor ALK5) (receptor, UniProt P36897 34-503)
chain: LQCFCHLCTKDNFTCVTDGLCFVSVTETTDKVIHNSMCIAEIDLIPRDRPFVCAPSSKTGSVTTTYCCNQDHCNKIELPTTVKSSPGLGPVELAAVIAGPVCFVCISLMLMVYICHNRTVIHHRVPNEEDPSLDRPFISEGTTLKDLIYDMTTSGSGSGLPLLVQRTIARTIVLQESIGKGRFGEVWRGKWRGEEVAVKIFSSREERSWFREAEIYQTVMLRHENILGFIAADNKDNGTWTQLWLVSDYHEHGSLFDYLNRYTVTVEGMIKLALSTASGLAHLHMEIVGTQGKPAIAHRDLKSKNILVKKNGTCCIADLGLAVRHDSATDTIDIAPNHRVGTKRYMAPEVLDDSINMKHFESFKRADIYAMGLVFWEIARRCSIGGIHEDYQLPYYDLVPSDPSVEEMRKVVCEQKLRPNIPNRWQSCEALRVMAKIMRECWYANGAARLTALRIKKTLSQLSQQEGIKM
binding [4]: binds
binding [1]: binds

B7: ALK5-VN173 (receptor, UniProt P36897 34-503)
chain: LQCFCHLCTKDNFTCVTDGLCFVSVTETTDKVIHNSMCIAEIDLIPRDRPFVCAPSSKTGSVTTTYCCNQDHCNKIELPTTVKSSPGLGPVELAAVIAGPVCFVCISLMLMVYICHNRTVIHHRVPNEEDPSLDRPFISEGTTLKDLIYDMTTSGSGSGLPLLVQRTIARTIVLQESIGKGRFGEVWRGKWRGEEVAVKIFSSREERSWFREAEIYQTVMLRHENILGFIAADNKDNGTWTQLWLVSDYHEHGSLFDYLNRYTVTVEGMIKLALSTASGLAHLHMEIVGTQGKPAIAHRDLKSKNILVKKNGTCCIADLGLAVRHDSATDTIDIAPNHRVGTKRYMAPEVLDDSINMKHFESFKRADIYAMGLVFWEIARRCSIGGIHEDYQLPYYDLVPSDPSVEEMRKVVCEQKLRPNIPNRWQSCEALRVMAKIMRECWYANGAARLTALRIKKTLSQLSQQEGIKM
binding (NEU1-VC155): binds

The remaining lines, values ahead:

binding [3]: no binding (tested: 500 nM)
B3: human ALK5_(200-503aa) recombinant protein (domain or fragment, UniProt P36897 200-503)
chain: TIARTIVLQESIGKGRFGEVWRGKWRGEEVAVKIFSSREERSWFREAEIYQTVMLRHENILGFIAADNKDNGTWTQLWLVSDYHEHGSLFDYLNRYTVTVEGMIKLALSTASGLAHLHMEIVGTQGKPAIAHRDLKSKNILVKKNGTCCIADLGLAVRHDSATDTIDIAPNHRVGTKRYMAPEVLDDSINMKHFESFKRADIYAMGLVFWEIARRCSIGGIHEDYQLPYYDLVPSDPSVEEMRKVVCEQKLRPNIPNRWQSCEALRVMAKIMRECWYANGAARLTALRIKKTLSQLSQQEGIKM

binding [1]: no binding
B4: Flag-AMHR2 (receptor, UniProt Q16671 18-573)
chain: PPNRRTCVFFEAPGVRGSTKTLGELLDTGTELPRAIRCLYSRCCFGIWNLTQDRAQVEMQGCRDSDEPGCESLHCDPSPRAHPSPGSTLFTCSCGTDFCNANYSHLPPPGSPGTPGSQGPQAAPGESIWMALVLLGLFLLLLLLLGSIILALLQRKNYRVRGEPVPEPRPDSGRDWSVELQELPELCFSQVIREGGHAVVWAGQLQGKLVAIKAFPPRSVAQFQAERALYELPGLQHDHIVRFITASRGGPGRLLSGPLLVLELHPKGSLCHYLTQYTSDWGSSLRMALSLAQGLAFLHEERWQNGQYKPGIAHRDLSSQNVLIREDGSCAIGDLGLALVLPGLTQPPAWTPTQPQGPAAIMEAGTQRYMAPELLDKTLDLQDWGMALRRADIYSLALLLWEILSRCPDLRPDSSPPPFQLAYEAELGNTPTSDELWALAVQERRRPYIPSTWRCFATDPDGLRELLEDCWDADPEARLTAECVQQRLAALAHPQESHPFPESCPRGCPPLCPEDCTSIPAPTILPCRPQRSACHFSVQQGPCSRNPQPACTLSPV

binding [3]: no binding (tested: 500 nM)
B5: human ALK5_(1-125aa) recombinant protein (domain or fragment, UniProt P36897 34-125)
chain: LQCFCHLCTKDNFTCVTDGLCFVSVTETTDKVIHNSMCIAEIDLIPRDRPFVCAPSSKTGSVTTTYCCNQDHCNKIELPTTVKSSPGLGPVE

binding [2]: binds
binding [5]: binds
binding [6]: binds
B8: TGFβ type I receptor ALK5, endogenous (receptor, UniProt P36897 34-503)
chain: LQCFCHLCTKDNFTCVTDGLCFVSVTETTDKVIHNSMCIAEIDLIPRDRPFVCAPSSKTGSVTTTYCCNQDHCNKIELPTTVKSSPGLGPVELAAVIAGPVCFVCISLMLMVYICHNRTVIHHRVPNEEDPSLDRPFISEGTTLKDLIYDMTTSGSGSGLPLLVQRTIARTIVLQESIGKGRFGEVWRGKWRGEEVAVKIFSSREERSWFREAEIYQTVMLRHENILGFIAADNKDNGTWTQLWLVSDYHEHGSLFDYLNRYTVTVEGMIKLALSTASGLAHLHMEIVGTQGKPAIAHRDLKSKNILVKKNGTCCIADLGLAVRHDSATDTIDIAPNHRVGTKRYMAPEVLDDSINMKHFESFKRADIYAMGLVFWEIARRCSIGGIHEDYQLPYYDLVPSDPSVEEMRKVVCEQKLRPNIPNRWQSCEALRVMAKIMRECWYANGAARLTALRIKKTLSQLSQQEGIKM

binding [1]: no binding
B9: Flag-ALK7 (receptor, UniProt Q8NER5 21-493)
chain: ELSPGLKCVCLLCDSSNFTCQTEGACWASVMLTNGKEQVIKSCVSLPELNAQVFCHSSNNVTKTECCFTDFCNNITLHLPTASPNAPKLGPMELAIIITVPVCLLSIAAMLTVWACQGRQCSYRKKKRPNVEEPLSECNLVNAGKTLKDLIYDVTASGSGSGLPLLVQRTIARTIVLQEIVGKGRFGEVWHGRWCGEDVAVKIFSSRDERSWFREAEIYQTVMLRHENILGFIAADNKDNGTWTQLWLVSEYHEQGSLYDYLNRNIVTVAGMIKLALSIASGLAHLHMEIVGTQGKPAIAHRDIKSKNILVKKCETCAIADLGLAVKHDSILNTIDIPQNPKVGTKRYMAPEMLDDTMNVNIFESFKRADIYSVGLVYWEIARRCSVGGIVEEYQLPYYDMVPSDPSIEEMRKVVCDQKFRPSIPNQWQSCEALRVMGRIMRECWYANGAARLTALRIKKTISQLCVKEDCKA
